The campaign covered roughly 310,000 compounds. About 2,200 (0.71%) showed an effect of 50% or more. The effect is printed as a negative number. The list shows a part of the results.

This assay deals with human ether-à-go-go-related gene (hERG) potassium channel (human, UniProt Q12809). In words: primary screen, population patch clamp on CHO cells stably expressing hERG.
human ether-à-go-go-related gene (hERG) potassium channel, sequence (Q12809 whole entry, looked up): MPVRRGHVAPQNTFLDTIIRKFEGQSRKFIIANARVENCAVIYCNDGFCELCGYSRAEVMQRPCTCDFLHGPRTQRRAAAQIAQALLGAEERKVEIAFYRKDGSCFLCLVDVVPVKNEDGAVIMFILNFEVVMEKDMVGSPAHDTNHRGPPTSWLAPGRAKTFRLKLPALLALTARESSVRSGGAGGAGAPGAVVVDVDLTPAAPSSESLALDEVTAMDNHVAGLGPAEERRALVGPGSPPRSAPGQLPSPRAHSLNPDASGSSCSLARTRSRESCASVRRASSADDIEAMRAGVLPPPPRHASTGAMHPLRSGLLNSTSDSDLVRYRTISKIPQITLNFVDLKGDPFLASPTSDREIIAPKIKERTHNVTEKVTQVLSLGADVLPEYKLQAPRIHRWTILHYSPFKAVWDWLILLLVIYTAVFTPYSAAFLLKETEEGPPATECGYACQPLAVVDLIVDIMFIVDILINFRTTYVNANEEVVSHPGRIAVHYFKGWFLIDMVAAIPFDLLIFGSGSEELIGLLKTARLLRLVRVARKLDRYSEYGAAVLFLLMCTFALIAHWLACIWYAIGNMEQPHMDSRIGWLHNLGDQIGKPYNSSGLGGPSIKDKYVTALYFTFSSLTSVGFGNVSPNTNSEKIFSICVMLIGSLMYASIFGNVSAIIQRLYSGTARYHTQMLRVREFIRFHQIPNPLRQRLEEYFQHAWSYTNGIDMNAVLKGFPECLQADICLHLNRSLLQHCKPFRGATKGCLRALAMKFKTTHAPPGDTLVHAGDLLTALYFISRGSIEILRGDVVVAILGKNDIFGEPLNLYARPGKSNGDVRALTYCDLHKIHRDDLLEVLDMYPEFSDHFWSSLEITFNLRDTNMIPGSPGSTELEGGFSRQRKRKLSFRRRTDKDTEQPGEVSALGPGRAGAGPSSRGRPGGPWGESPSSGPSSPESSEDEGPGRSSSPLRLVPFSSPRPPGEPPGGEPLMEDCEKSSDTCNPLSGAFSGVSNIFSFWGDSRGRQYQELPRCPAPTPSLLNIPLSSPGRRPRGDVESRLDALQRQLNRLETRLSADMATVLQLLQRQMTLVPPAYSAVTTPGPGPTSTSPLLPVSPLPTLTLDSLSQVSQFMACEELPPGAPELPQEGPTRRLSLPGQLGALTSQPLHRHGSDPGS
On to `CCOC(=O)Cn1c(S(=O)(=O)Cc2ccc(Cl)cc2)nc(-c2ccccc2)c1-c1ccccc1`, for which the “hERG current change (%, negative = inhibition) at 1uM” value worked out at 6.08%. Then `COc1ccccc1NC(=O)COc1ccc2ccccc2c1`, with 7.23%; and `COc1ccc(NC(=O)NCc2ccncc2)c(OC)c1`, with 3.9%.

Turning to `COc1cc2cc(CCOC(=O)CCCC(=O)O)oc(=O)c2cc1OC`, the “hERG current change (%, negative = inhibition) at 1uM” value is reported as 14.1%.

Turning to `CCn1nc(C(=O)OCC(=O)N2CC(=O)Nc3ccccc32)c2ccccc2c1=O`, the “hERG current change (%, negative = inhibition) at 1uM” value is recorded as 10.2%. Regarding `COC(=O)c1ccc(NS(=O)(=O)N(C)C)cc1`, the “hERG current change (%, negative = inhibition) at 1uM” value stood at 2.85%.

Turning to `Cc1ccc(-n2cnc3cc(NCc4cccs4)ccc32)cc1`, the “hERG current change (%, negative = inhibition) at 1uM” value turned out to be 3.57%.

Regarding `O=C(CN1CCN(c2ccccc2F)CC1)Nc1nnc(C(F)(F)F)s1`, the “hERG current change (%, negative = inhibition) at 1uM” value was determined as 6.81%. With `O=C(Nc1ccccc1)C1=C[C@H](c2ccc(C(F)(F)F)cc2)C[C@H](OCCCCO)O1`, the “hERG current change (%, negative = inhibition) at 1uM” value amounted to 8.94%.

In the case of `CC(C)Cc1nnc(NC(=O)CSc2ncn[nH]2)s1`, the “hERG current change (%, negative = inhibition) at 1uM” value is given as 9.72%. Then `Cc1cc(=O)oc2cc(OC(C)C(=O)Nc3ccc(C(N)=O)cc3)ccc12` (stereo not shown), with 11.7%; and `COC(=O)Cc1csc(N)[nH+]1.[Cl-]`, with 20.5%; and `CCn1c(CNC(=O)c2cccs2)n[nH]c1=S`, with 6.94%. With `CCOC(=O)C1(Cc2cccc(Cl)c2)CCCN(C(=O)c2cn[nH]c2)C1` (stereo not shown), the “hERG current change (%, negative = inhibition) at 1uM” value amounted to 6.11%. With `O=C(c1ccccc1)C1C(=O)c2ccccc2C1=O` the figure was 7.46%. Then `COC(=O)c1sc(-c2ccc(Cl)cc2)cc1NC(=O)COCC(=O)O`, with 9.66%; and `O=C(CSc1nnnn1-c1ccccc1)N1N=CCC1c1ccccc1` (stereo not shown), with -1.08%.

Consider `COc1ccc2c(c1)CCc1c(C(=O)N3CCc4ccccc4C3)noc1-2`, for which the “hERG current change (%, negative = inhibition) at 1uM” value worked out at 0.367%. As to `COC(=O)C1=C(c2ccc(-c3ccccc3)c(F)c2)C[C@@H]2CC[C@H]1N2C(=O)NCCNC(C)=O`, the “hERG current change (%, negative = inhibition) at 1uM” value is reported as 9.6%. Then `O=C(C1CCC1)N1CCc2cc(S(=O)(=O)NCc3ccco3)ccc21`, with 7.44%. As to `O=S(=O)(NC1=NCCC1)c1cccc(NS(=O)(=O)c2ccc(F)c(Cl)c2)c1`, the “hERG current change (%, negative = inhibition) at 1uM” value is given as 3.53%. With `Cc1cccc(NC(=O)Cn2cnc3sc(C)c(S(=O)(=O)N4CCC(C)CC4)c3c2=O)n1` the figure was 4.71%.

On to `Cc1ccsc1C(=O)C1CCCN(Cc2ccn[nH]2)C1` (stereo not shown), for which the “hERG current change (%, negative = inhibition) at 1uM” value is on record as 9.05%. `CCOc1ccc(NS(=O)(=O)c2ccc(C(=O)NCCN3CCOCC3)cc2)cc1`: the “hERG current change (%, negative = inhibition) at 1uM” value is -0.0798%. As for `Cc1ccc(S(=O)(=O)Nc2ccc(N3CCN(C)CC3)nc2)cc1`, the “hERG current change (%, negative = inhibition) at 1uM” value is recorded as 6.01%.

The record behind these values is publication PMC4336329 (PLoS ONE, 2015).
